# Where “and” joins values, the source holds several entries; their conditions need not be identical. Equal values may be shown once. The whole screen tested about 270,000 compounds, of which about 5,800 (2.1%) were called active. Inconclusive results, whose numbers are uncertain, are shown with a selection of clear calls. Calls follow the shape of the dose curve; as a rule, active = well fitted inhibition curve with a large enough effect; inconclusive = small, poorly fitted or top-dose-only effect; inactive = flat fitted curve, though single readings scatter. A potency beside an inconclusive call is a rough fit, not a confirmed value.
# Target: Microtubule-associated protein tau (Homo sapiens) (UniProt P10636)
# Sequence of UniProt P10636 (P10636 whole entry, looked up): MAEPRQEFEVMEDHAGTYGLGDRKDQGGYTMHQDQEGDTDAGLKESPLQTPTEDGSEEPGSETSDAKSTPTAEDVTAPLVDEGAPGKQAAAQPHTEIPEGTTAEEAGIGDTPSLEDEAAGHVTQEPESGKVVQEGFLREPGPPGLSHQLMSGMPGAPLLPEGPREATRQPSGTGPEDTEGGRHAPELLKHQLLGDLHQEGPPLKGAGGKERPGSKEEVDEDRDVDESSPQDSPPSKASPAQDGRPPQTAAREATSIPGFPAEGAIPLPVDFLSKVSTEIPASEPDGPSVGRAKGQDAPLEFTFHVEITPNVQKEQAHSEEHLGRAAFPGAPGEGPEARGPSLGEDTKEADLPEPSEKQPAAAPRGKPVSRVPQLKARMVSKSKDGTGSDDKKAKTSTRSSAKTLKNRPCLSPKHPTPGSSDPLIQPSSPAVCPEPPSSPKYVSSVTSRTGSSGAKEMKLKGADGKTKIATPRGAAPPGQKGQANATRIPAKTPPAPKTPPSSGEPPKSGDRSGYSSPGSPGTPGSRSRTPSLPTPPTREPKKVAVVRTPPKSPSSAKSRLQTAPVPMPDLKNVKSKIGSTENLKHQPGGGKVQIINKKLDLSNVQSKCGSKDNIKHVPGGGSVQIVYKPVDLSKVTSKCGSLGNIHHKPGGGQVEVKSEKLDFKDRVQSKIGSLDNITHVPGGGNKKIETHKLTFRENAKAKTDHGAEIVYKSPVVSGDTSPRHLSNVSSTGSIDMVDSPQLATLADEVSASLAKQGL
# Experiment: qHTS for Inhibitors of Tau Fibril Formation, Thioflavin T Binding; also: nearly all actives have a fitted effect of over 55% in size
# Conditions: recombinant tau K18 P301L (four-repeat tau fragment), heparin-induced fibrillization, ThT fluorescence; series mostly up to 57.4 µM
# How it was run: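 Recombinant human tau K18 fragment […] carrying P301L, 15 uM unlabeled plus 0.24 uM Alexa 594-labeled, was fibrillized with 20 uM heparin in 100 mM sodium acetate pH 7 for 6 hr at 37 C; 30 uM ThT fluorescence read after 1 hr.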
# % is scaled to controls: 0 for no effect and ±100 for the full control effect; potency is read from the fitted curve at half-maximal effect; tags tell the direction and shape of the fitted curve.
Compound,Potency,"activity, negative = inhibition"
COc1ccccc1C1=NC(c2ccc(C)cc2)N=C1C (stereo not given),"inconclusive: 31.6 µM [inhibitor, single point]",–
COc1cccc(C(=O)NCC(=O)N/N=C/c2cccc(OC(=O)c3ccc([N+](=O)[O-])cc3)c2)c1,"inconclusive: 2.24 µM [inhibitor, full curve]",–
O=C(OCC(=O)N1CCN(C(=O)c2ccco2)CC1)c1cc(-c2ccccc2)nc2ccccc12,"inconclusive: 28.2 µM [inhibitor, partial curve]",–
COC(=O)c1sc2cccc(F)c2c1S(=O)(=O)Nc1ccc(N(C)C)cc1,"inconclusive: 11.2 µM [inhibitor, partial curve]",–
CCCN(C(=O)c1cc2ccc3cccnc3c2[nH]1)c1ccc(F)cc1,inactive,–
O=C(CNc1cccc2ccccc12)N/N=C/c1ccc[nH]1,"inconclusive: 2.51 µM [inhibitor, full curve, poor fit]",–
Nc1c(NCCN2CCOCC2)c2ccccc2oc1=O,"inconclusive: 28.2 µM [inhibitor, partial curve]",–
Cc1cc2nnc(SCCCCN3C(=O)c4ccccc4C3=O)n2c2ccccc12,"inconclusive: 22.4 µM [inhibitor, partial curve]",–
O=C(Nc1ccc(Cl)cn1)c1ccc(COc2ccccc2Br)o1,"inconclusive: 7.08 µM [inhibitor, full curve]",–
CC(C)(C)OC(=O)N1CCC(c2c(C(=O)N3CCN(c4ccccc4)CC3)cnn2-c2ccccc2)CC1,inactive,–
Cc1cc(C)c2c(-c3ccc(-c4ccc(C(F)(F)F)cc4)cc3)cc(=O)oc2c1,"inconclusive: 4.47 µM [inhibitor, full curve]",–
O=C(CN1C(=O)S/C(=C/c2ccc(N3CCOCC3)cc2)C1=O)N1CCOCC1,"inconclusive: 2.51 µM [inhibitor, partial curve]",–
CC(C)n1cc(/C=N\NC(=O)c2cc3c(ccc4ccccc43)o2)c2ccccc21,"inconclusive: 2.24 µM [inhibitor, full curve]",–
CCSc1nc(C2CC2)cc(-c2cccs2)c1C#N,"inconclusive: 15.8 µM [inhibitor, partial curve]",–
CC(C)(C)C(=O)NC(c1ccc(Cl)cc1)[C@]1(C)C[C@H]1C1CCCCC1 (stereo not given in full),inactive,–
COC(=O)c1sc(NC(=O)COc2ccc(C)cc2)nc1C,"inconclusive: 6.31 µM [inhibitor, partial curve]",–
Cc1ccc(OCCN2CCN(c3ncnc4sc(C)c(C)c34)CC2)cc1,"inconclusive: 28.2 µM [inhibitor, partial curve]",–
Cc1ccccc1C(=O)NC(CC(C)C)C(=O)OCc1cc(=O)n2cc(Br)ccc2n1 (stereo not given),"inconclusive: 15.8 µM [inhibitor, partial curve]",–
COc1cc(/C=C2\C(=O)NN(c3ccc(C)cc3)C2=O)cc([N+](=O)[O-])c1O,active: 12.6 µM,–
COc1ccc(NC(=O)/C=C/c2ccccc2[N+](=O)[O-])c(OC)c1,active: 12.6 µM,–
COC(=O)c1ccccc1NC(=O)c1ccc(COc2cc(C)cc(C)c2)o1,"inconclusive: 15.8 µM [inhibitor, partial curve, poor fit] and inconclusive: 11.2 µM [inhibitor, partial curve, poor fit]",–
COc1ccc(CCCc2nnc(SCC(=O)Nc3cc(C)ccc3C)o2)cc1,"inconclusive: 7.94 µM [inhibitor, partial curve, poor fit]",–

Compound,Potency,"activity, negative = inhibition"
CC(=O)c1ccc(N2CCN(CC(=O)Nc3ccc(N4CCOCC4)cc3)CC2)cc1,inactive,–
CC1(C)NC(=O)N(CCOCCOc2ccc3ccccc3c2Br)C1=O,inactive,–
CCOC(=O)c1ccc(NC(=O)C2(c3ccc(Cl)cc3)CCCC2)cc1,inactive,–
COC(=O)c1ccc(/C=N/N2CCN(Cc3ccccc3Cl)CC2)cc1,"inconclusive: 1 µM [inhibitor, partial curve]",–
CCOC(=O)c1cnc2cc(-c3ccc(C(C)(C)C)cc3)nn2c1N,"inconclusive: 2.24 µM [inhibitor, full curve]",–
O=C1NN(c2ccccc2)C(=O)/C1=C\c1cccn1-c1ccc(Cl)c([N+](=O)[O-])c1,"inconclusive: 15.8 µM [inhibitor, partial curve]",–
COc1ccc(Cl)cc1NC(=O)Cn1c(=O)n(Cc2cccs2)c(=O)c2cccnc21,inactive,–
COC(=O)c1ccccc1NC(=O)c1ccc(COc2ccc3c(c2)CCC3)cc1,"inconclusive: 8.91 µM [inhibitor, partial curve]",–
O=C(NCCc1ccccc1)C1CCN(c2ncnc3c2nc2n3CCCCC2)CC1,inactive,–
O=C(O)c1ccc(NC2=C(Cl)C(=O)c3ccccc3C2=O)cc1,active: 1.41 µM,–
CCOC(=O)C1CCN(c2c(NCc3ccc(C(=O)Nc4ccc(C)cc4)cc3)c(=O)c2=O)CC1,inactive,–
COc1cc(CNc2ccc(N3CCN(C(C)=O)CC3)cc2)ccc1OCc1ccc(F)cc1,"inconclusive: 3.98 µM [inhibitor, full curve]",–
COc1ccccc1N1CCN(C(=O)c2cc(-c3ccc(C)cc3)on2)CC1,"inconclusive: 11.2 µM [inhibitor, partial curve]",–
COc1ccc(/C=C/C(=O)c2nc3ccccc3n2CC(=O)c2ccc(OC)cc2)cc1,"inconclusive: 17.8 µM [inhibitor, single point]",–
Cc1ncc(CO)c2c1Oc1nc(-c3ccc(F)cc3)nc(SCC(=O)N3CCCCC3)c1C2,"inconclusive: 17.8 µM [inhibitor, single point]",–
CCOC(=O)CCN1C(=O)[C@H]2[C@H]3[C@H](O)[C@H](O)C/C(=N/OCc4ccccc4)[C@@H]3CC[C@@H]2C1=O,–,inactive: -2.46% [at 11.5 µM]
Cc1ccc(NC(=S)N(CCN(C)C)Cc2cc3cccc(C)c3[nH]c2=O)cc1,inactive,–
c1ccc2c(Nc3nncs3)c3ccccc3nc2c1,"inconclusive: 3.16 µM [inhibitor, full curve]",–
Cc1cc(NC(=O)c2cc(-c3cccc(Cl)c3)on2)nn1Cc1ccc(Cl)cc1,inactive,–
O=C(O)C1Nc2c(O)cc(Cl)c([N+](=O)[O-])c2C2C=CCC12 (stereo not given),active: 7.94 µM,–
CCOC(=O)c1cnc(-n2nc(C)cc2C)nc1NNc1ncc(-c2ccccc2)cn1,"inconclusive: 31.6 µM [inhibitor, partial curve, poor fit]",–
Cc1cc2nn(-c3ccccc3)nc2cc1NC(=O)COc1ccc(Cl)cc1,"inconclusive: 20 µM [inhibitor, partial curve, poor fit]",–

Compound,Potency,"activity, negative = inhibition"
CC1CCCN(C2=C(NS(=O)(=O)c3ccc(Cl)cc3)C(=O)c3ccccc3C2=O)C1 (stereo not given),"inconclusive: 7.08 µM [inhibitor, single point]",–
O=C(CNC(=O)c1ccco1)OCc1ccc(C(=O)Oc2ccccc2)cc1,"inconclusive: 11.2 µM [inhibitor, partial curve]",–
C/C(=N\NC(=O)c1ccccc1C)c1ccc(N2CCOCC2)cc1,"inconclusive: 17.8 µM [inhibitor, partial curve]",–
C=C(C)C1CC=C(C)/C(=N\NC(=O)CNc2ccccc2OC)C1 (stereo not given),"inconclusive: 12.6 µM [inhibitor, partial curve, poor fit]",–
O=C(CN1C(=O)S/C(=C\c2ccc(O)cc2)C1=O)c1ccccc1,"inconclusive: 0.631 µM [inhibitor, partial curve]",–
O=C(CN1CC(=O)Oc2ccccc21)OCC(=O)c1cccc(Br)c1,"inconclusive: 15.8 µM [inhibitor, partial curve]",–
Cc1nnc(N2CCC(C(=O)Nc3ccc(F)cc3)CC2)c2nn(-c3ccc(Cl)cc3)c(C)c12,"inconclusive: 39.8 µM [inhibitor, single point]",–
Cc1cc(Sc2ncnc(N)c2[N+](=O)[O-])ncn1,"inconclusive: 2.82 µM [inhibitor, full curve]",–
Cc1ccc2c3c(cccc13)-c1ccccc1C2=O,"inconclusive: 25.1 µM [inhibitor, partial curve]",–
O=C(CSc1cccc[n+]1[O-])Nc1cc2c(cc1Cl)C(=O)c1ccccc1C2=O,"inconclusive: 8.91 µM [inhibitor, partial curve]",–
C[n+]1cccc2c(Br)ccc([O-])c21,active: 14.1 µM,–
COc1cccc(OC)c1C(=O)Nc1ccc(N2CCN(S(C)(=O)=O)CC2)cc1,inactive,–
Cc1cc(C)c(C#N)c(SCC(=O)Nc2nnc(-c3ccccc3)s2)n1,"inconclusive: 0.562 µM [inhibitor, single point]",–
COc1ccc(N=C(C)c2sc3ccccc3c2O)cc1,"inconclusive: 1.58 µM [inhibitor, full curve]",–
N/C(=N\OC(=O)c1ccc2c(c1)OCO2)c1ccc(Br)cc1,"inconclusive: 3.16 µM [inhibitor, full curve, poor fit]",–
CCOC(=O)c1nc(S(C)(=O)=O)ncc1Cl,"inconclusive: 3.55 µM [inhibitor, full curve]",–
Cc1ccc(NC(=S)NCCc2ccc(S(N)(=O)=O)cc2)cc1C,inactive,–
CCc1ccccc1NC(=O)/C(=C/c1ccccc1)c1ccccc1,"inconclusive: 15.8 µM [inhibitor, partial curve]",–
COc1ccc(NC(=O)CSc2nc3ccccc3nc2N2CCC(C)CC2)cc1,inactive,–
COc1ccc(N2CCN(c3oc(COc4ccc(Cl)cc4Cl)nc3C#N)CC2)cc1,"inconclusive: 7.94 µM [inhibitor, partial curve, poor fit]",–
CN(Cc1cn(C)nc1-c1ccc(Oc2ccccc2)cc1)Cc1cnc2ccccn12,"inconclusive: 39.8 µM [inhibitor, single point]",–
